# Test results taken from article PMC9911399, “Two distinct binding modes provide the RNA-binding protein RbFox with extraordinary sequence specificity”.
# Where a chain is given by its changes, count along the chain named. This is one part of the list.
# T1: RBFOX1 RRM RbFoxmut (Fox-RRM*) (Homo sapiens, UniProt Q9NWB1 109-208, R118D;E147R;N151S;E152T)
# T1 sequence: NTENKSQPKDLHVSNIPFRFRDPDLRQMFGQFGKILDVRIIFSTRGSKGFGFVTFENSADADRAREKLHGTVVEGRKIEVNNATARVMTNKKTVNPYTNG
# B1: CGCACAA (DNA:RNA)
# RNA: GGGAGACCGGAAUUCAGAUUGUCCCGCACAAUUAAAUCCCGUCGUAGCCACCA
# DNA 1: CAATCTGAATTCCGGTCTCCC
# DNA 2: TGGTGGCTACGACGGGATT
# B2: ACAGUUC (DNA:RNA)
# RNA: GGGAGACCGGAAUUCAGAUUGUCCACAGUUCUUAAAUCCCGUCGUAGCCACCA
# DNA 1: CAATCTGAATTCCGGTCTCCC
# DNA 2: TGGTGGCTACGACGGGATT
# B3: GUUGUGA (DNA:RNA)
# RNA: B2 RNA with A25G, C26U, A27U, U30G, C31A
# DNA 1: CAATCTGAATTCCGGTCTCCC
# DNA 2: TGGTGGCTACGACGGGATT
# B4: UCCCCAC (DNA:RNA)
# RNA: B1 RNA with C25U, G26C, A28C, A31C
# DNA 1: CAATCTGAATTCCGGTCTCCC
# DNA 2: TGGTGGCTACGACGGGATT
# B5: GCCCUCC (DNA:RNA)
# RNA: B2 RNA with A25G, A27C, G28C, U30C
# DNA 1: CAATCTGAATTCCGGTCTCCC
# DNA 2: TGGTGGCTACGACGGGATT
# B6: GGGCAUU (DNA:RNA)
# RNA: B2 RNA with A25G, C26G, A27G, G28C, U29A, C31U
# DNA 1: CAATCTGAATTCCGGTCTCCC
# DNA 2: TGGTGGCTACGACGGGATT
# B7: GACCACG (DNA:RNA)
# RNA: B1 RNA with C25G, G26A, A28C, C29A, A30C, A31G
# DNA 1: CAATCTGAATTCCGGTCTCCC
# DNA 2: TGGTGGCTACGACGGGATT
# B8: AACUGGG (DNA:RNA)
# RNA: B2 RNA with C26A, A27C, G28U, U29G, U30G, C31G
# DNA 1: CAATCTGAATTCCGGTCTCCC
# DNA 2: TGGTGGCTACGACGGGATT
# B9: GAAACUC (DNA:RNA)
# RNA: B2 RNA with A25G, C26A, G28A, U29C
# DNA 1: CAATCTGAATTCCGGTCTCCC
# DNA 2: TGGTGGCTACGACGGGATT
# B10: ACCUCUG (DNA:RNA)
# RNA: B2 RNA with A27C, G28U, U29C, C31G
# DNA 1: CAATCTGAATTCCGGTCTCCC
# DNA 2: TGGTGGCTACGACGGGATT
# B11: UGUCGCU (DNA:RNA)
# RNA: B1 RNA with C25U, C27U, A28C, C29G, A30C, A31U
# DNA 1: CAATCTGAATTCCGGTCTCCC
# DNA 2: TGGTGGCTACGACGGGATT
# B12: UCGUUUC (DNA:RNA)
# RNA: B2 RNA with A25U, A27G, G28U
# DNA 1: CAATCTGAATTCCGGTCTCCC
# DNA 2: TGGTGGCTACGACGGGATT
# B13: AAAAUGG (DNA:RNA)
# RNA: B2 RNA with C26A, G28A, U30G, C31G
# DNA 1: CAATCTGAATTCCGGTCTCCC
# DNA 2: TGGTGGCTACGACGGGATT
# B14: ACUGCCU (DNA:RNA)
# RNA: B2 RNA with A27U, U29C, U30C, C31U
# DNA 1: CAATCTGAATTCCGGTCTCCC
# DNA 2: TGGTGGCTACGACGGGATT
# B15: GGACCGA (DNA:RNA)
# RNA: B1 RNA with C25G, C27A, A28C, A30G
# DNA 1: CAATCTGAATTCCGGTCTCCC
# DNA 2: TGGTGGCTACGACGGGATT
# B16: AGUCCUA (DNA:RNA)
# RNA: B1 RNA with C25A, C27U, A28C, A30U
# DNA 1: CAATCTGAATTCCGGTCTCCC
# DNA 2: TGGTGGCTACGACGGGATT
# B17: UUGUCUA (DNA:RNA)
# RNA: B1 RNA with C25U, G26U, C27G, A28U, A30U
# DNA 1: CAATCTGAATTCCGGTCTCCC
# DNA 2: TGGTGGCTACGACGGGATT
# B18: UUAACUG (DNA:RNA)
# RNA: B2 RNA with A25U, C26U, G28A, U29C, C31G
# DNA 1: CAATCTGAATTCCGGTCTCCC
# DNA 2: TGGTGGCTACGACGGGATT
# B19: AUCGAAC (DNA:RNA)
# RNA: B2 RNA with C26U, A27C, U29A, U30A
# DNA 1: CAATCTGAATTCCGGTCTCCC
# DNA 2: TGGTGGCTACGACGGGATT
# B20: CUUACGU (DNA:RNA)
# RNA: B1 RNA with G26U, C27U, A30G, A31U
# DNA 1: CAATCTGAATTCCGGTCTCCC
# DNA 2: TGGTGGCTACGACGGGATT
# Molecular target: T1, RBFOX1 RRM RbFoxmut (Fox-RRM*)
# Assay: EMSA; HiTS-Eq, 1 nM pool, 10 min; buffer printed only for the single-RNA assays: 10 mM Tris pH 7.5, 150 mM NaCl, 3.4 mM EDTA, 0.001% NP-40, 30 C
# Conditions: tags: His6 N-terminal (pET28a); label: 5' 32P
# Method in brief: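 Purified RbFox RRM, wild type or mutant, was incubated for 10 min in 50 µL with 1 nM of a 5′-radiolabelled RNA pool carrying 7 randomized nucleotides, whose flanks were annealed to DNA oligonucleotides, over a series of increasing protein concentrations. Unbound RNA was resolved on 8% native PAGE, cut out, reverse-transcribed, barcoded by PCR and sequenced on an Illumina HiSeq 2500. Relative association constants were derived from changes in read counts for each RNA species versus the control reaction and normalised to the cognate motif.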
row,Binder,binding signal
1,B1,0.0611 KA relative to UGCAUGU
2,B2,0.0875 KA relative to UGCAUGU
3,B3,0.124 KA relative to UGCAUGU
4,B4,0.118 KA relative to UGCAUGU
5,B5,0.0425 KA relative to UGCAUGU
6,B6,0.0737 KA relative to UGCAUGU
7,B7,0.105 KA relative to UGCAUGU
8,B8,0.0673 KA relative to UGCAUGU
9,B9,0.0464 KA relative to UGCAUGU
10,B10,0.0699 KA relative to UGCAUGU
11,B11,0.0827 KA relative to UGCAUGU
12,B12,0.127 KA relative to UGCAUGU
13,B13,0.0725 KA relative to UGCAUGU
14,B14,0.098 KA relative to UGCAUGU
15,B15,0.162 KA relative to UGCAUGU
16,B16,0.0843 KA relative to UGCAUGU
17,B17,0.122 KA relative to UGCAUGU
18,B18,0.0957 KA relative to UGCAUGU
19,B19,0.0889 KA relative to UGCAUGU
20,B20,0.112 KA relative to UGCAUGU
